These results are taken from PubChem BioAssay AID1745853 (National Center for Advancing Translational Sciences (NCATS), 2022).

Molecules are shown by their SMILES. Some of the results follow. Shown are side measurements of this screen, not its main read-out; they come without a call.

What all share (experiment): Primary Screen for Target Class Profiling of Small Molecule Inhibitors of Methyltransferases
Assay [1] concerns the target Glycine N-methyltransferase (Homo sapiens) (UniProt Q14749). The conditions noted are these: purified enzyme, MTase-Glo SAH luminescence; measured here: GNMT inhibition; at 40 µM; stronger effect = lower value. An outline of the steps: (§1)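 Each enzyme was reacted with SAM and its substrate, with compounds tested once at 40 uM; SAH formed was read by MTase-Glo luminescence.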
In assay [2] the target is Guanidinoacetate N-methyltransferase (Homo sapiens) (UniProt Q14353). The conditions noted are these: purified enzyme, MTase-Glo SAH luminescence; measured here: GAMT inhibition; at 40 µM; stronger effect = lower value. The gist of the method: as §1
For assay [3], the target named is Histamine N-methyltransferase (Homo sapiens) (UniProt P50135). The conditions noted are these: purified enzyme, MTase-Glo SAH luminescence; measured here: HNMT inhibition; at 40 µM; stronger effect = lower value. The gist of the method: as §1
In assay [4] the target is Nicotinamide N-methyltransferase (Homo sapiens) (UniProt P40261). The conditions noted are these: purified enzyme, MTase-Glo SAH luminescence; measured here: NNMT inhibition; at 40 µM; stronger effect = lower value. An outline of the steps:
as §1

Assay [5] addresses Phenylethanolamine N-methyltransferase (Homo sapiens) (UniProt P11086). The conditions noted are these: purified enzyme, MTase-Glo SAH luminescence; measured here: PNMT inhibition; at 40 µM; stronger effect = lower value. An outline of the steps:
as §1
% is scaled to controls: 0 for no effect and ±100 for the full control effect.

For the compound `CC1CCC(NC(=O)C2(C)Cn3c(ccc3-c3ccccc3)C(=O)N2Cc2cccs2)CC1` (stereo not given), the activity change, negative = inhibition in assay [1] was 5.86%; in assay [2], 0%; in assay [3], 3.17%; in assay [4], -7%; in assay [5], -1.92%.
`O=C(Cc1cccc(C(F)(F)F)c1)N[C@H]1CCOC[C@H]1C1CCOCC1`: the activity change, negative = inhibition is -2.61% in assay [1]; 0.048% in assay [2]; -1.53% in assay [3]; -4.11% in assay [4]; -3.97% in assay [5].
`CC(C)(Cc1nc(-c2ccc(O)cn2)no1)C(=O)NC1=C(C(=O)O)CCCC1`: the activity change, negative = inhibition was -2.86% in assay [1]; -7.31% in assay [2]; -6.2% in assay [3]; -18.3% in assay [4]; -13.6% in assay [5].
As to `O=C(CCc1nnc2n(Cc3ccccc3)c(=O)c3ccccc3n12)NCCN1CCOCC1`, the activity change, negative = inhibition in assay [1] is -4.87%; in assay [2] it was 0%; in assay [3], 7.41%; in assay [4], 11%; in assay [5] it was 3.25%.
For `C[C@@H]1CC[C@H]2C(C)(C)[C@H](O)[C@H](O)C[C@]2(C)[C@@]12Cc1c(O)cc3c(c1O2)CNC3=O` the same measures were 5.38%, 7%, 7.86%, -6.75% and 1.64%.
For `C/C=C(\C)C(=O)OCC1OC(OC2OC(COC(=O)/C(C)=C/C)C(OC3OC(CO)C(OC(=O)/C(C)=C/C)C(OC(=O)/C(C)=C/C)C3O)C(O)C2O)C(O)C(O)C1OC1OC(CO)C(OC(=O)/C(C)=C/C)C(OC(=O)/C(C)=C/C)C1O` (stereo not given) the same measures were -4.1%, 2.42%, 0.526%, -7.24% and 4.28%.
As to `Cc1ccc(NC(=O)Cn2nc3n(CCC(C)C)c(=O)c4ccccc4n3c2=O)cc1C`, the activity change, negative = inhibition in assay [1] amounted to 2.46%; in assay [2], 0%; in assay [3] it was 9.48%; in assay [4], 4.86%; in assay [5] it was 3.31%.
For `Cc1ccc2n1CCN(C(=O)NCCc1ccccc1)C2C(C)C` (stereo not given) the same measures were -4.75%, 1.78%, -17%, -11.7% and -11.3%.
The corresponding values for `Cc1ccc(C)c(Cn2nc3n(CCC(C)C)c(=O)c4ccccc4n3c2=O)c1` are 2.8%, 3.92%, 5.29%, 0.246% and 0.748%.
The corresponding values for `Cc1ccc(C(=O)O)c2c1N[C@H](c1cccc(Cl)c1)C1CC=CC21` (stereo not given in full) are -53.3%, 0.697%, -3.88%, -9.66% and -1.92%.
As to `OC[C@H]1CCN(c2ccnc3c(C(F)(F)F)cccc23)C[C@H]1O`, the activity change, negative = inhibition is 0.345% in assay [1]; -1.21% in assay [2]; 0.673% in assay [3]; -2.38% in assay [4]; 4.17% in assay [5].
For `COc1ccc(CNc2nc3c(-c4ccc(Cl)cc4)nnn3c3ccccc23)cc1` the same measures were -2.06%, 2.7%, 1.91%, -1.26% and -1.49%.
`CN(C)[C@@H]1CN(C(=O)c2cc3ccccc3[nH]2)CC[C@@H]1CO`: the activity change, negative = inhibition in assay [1] was -0.279%; in assay [2] it was 6.01%; in assay [3], 1.33%; in assay [4] it was 1.18%; in assay [5], -7.3%.
For `Cc1cc(F)ccc1NS(=O)(=O)c1ccc2[nH]c(=O)[nH]c2c1` the same measures were 2.24%, 0%, 4.36%, -2.94% and -6.61%.
For `O=C(NS(=O)(=O)c1ccc(Br)s1)c1ccc(Cl)cc1Cl` the same measures were -4.7%, -5.7%, 2.54%, -19.3% and -8.07%.
As to `CCCn1c(=O)c2ccc(C(=O)NC3CCCCC3)cc2n2c(=O)n(Cc3cccc(Cl)c3)nc12`, the activity change, negative = inhibition in assay [1] was 4.82%; in assay [2], 0%; in assay [3], 7.46%; in assay [4] it was 3.32%; in assay [5] it was 5.95%.
The corresponding values for `CN(C/C=C/c1ccccc1)C(=O)C1CCC(=O)N(Cc2cccc(F)c2)C1` (stereo not given) are -0.539%, -0.094%, 1.76%, -1.09% and 0.345%.
In the case of `C=C(C)C(=O)O[C@H]1/C(C=O)=C\CC/C(CO)=C/[C@H]2OC(=O)C(=C)[C@@H]2[C@@H]1OC`, the activity change, negative = inhibition in assay [1] was 0%; in assay [2] it was -12.9%; in assay [3], 0.631%; in assay [4] it was -24.5%; in assay [5], -1.34%.
On to `COc1ccccc1CNC(=O)Cn1c(=O)oc2cc(S(=O)(=O)NCc3ccccc3)ccc21`, for which the activity change, negative = inhibition in assay [1] turned out to be 12.9%; in assay [2], 1.63%; in assay [3], 11.3%; in assay [4], 1.53%; in assay [5], 10.8%.
As for `CC(C)c1ccc2c(c1)[C@H](O)CC1[C@@](C)(C(=O)O)CCC[C@]21C` (stereo not given in full), the activity change, negative = inhibition was -4.38% in assay [1]; 4.79% in assay [2]; 5.82% in assay [3]; -6.58% in assay [4]; -1.83% in assay [5].
For `CC1=CC(=O)CC(C)(C)[C@@]1(O)CC[C@@H](C)O[C@@H]1O[C@H](CO)[C@@H](O)[C@H](O)[C@H]1O` the same measures were -7.68%, -2.25%, 2.94%, -11.6% and -10.8%.
For `COc1cc(OC)cc(-c2nc(-c3ccc(S(=O)(=O)N4CCC(C)CC4)cc3)no2)c1` the same measures were -2.93%, 1.07%, 0.967%, -1.56% and 0.458%.
As to `CC(C)(C)c1cc2n(n1)CC(C)(C(=O)NC1CCCCC1)N(Cc1ccccc1)C2=O` (stereo not given), the activity change, negative = inhibition was -2.06% in assay [1]; -10.3% in assay [2]; 5.85% in assay [3]; -8.23% in assay [4]; -3.06% in assay [5].
The corresponding values for `C=C1C(=O)O[C@@H]2/C=C(\C)CC/C=C(\C(=O)O[C@@H]3O[C@H](CO)[C@@H](O)[C@H](O)[C@H]3O)CC[C@@H]12` are -4.34%, -14.5%, 2.24%, -17.8% and -8.83%.
For `COc1ccc(CCN2Cc3cc(NC(=O)Cc4cccs4)ccc3OCC2=O)cc1`, the activity change, negative = inhibition was -9.09% in assay [1]; -3.31% in assay [2]; -5.59% in assay [3]; -3.25% in assay [4]; -7.84% in assay [5].
Regarding `Cc1ccc(CNC(=O)C2(C)Cn3cnc(C(=O)Nc4ccccc4C)c3C(=O)N2C2CC2)cc1` (stereo not given), the activity change, negative = inhibition in assay [1] is -3.89%; in assay [2], -1.6%; in assay [3], 1.17%; in assay [4], -7.79%; in assay [5], -1.66%.
The corresponding values for `COc1ccc(CN2C(=O)c3ccc(-c4ccccc4)n3CC2(C)C(=O)NC2CCCCC2)cc1` (stereo not given) are 4.36%, 0%, 7.66%, 2.12% and 5.55%.
The corresponding values for `Cc1cc(CNC(=O)[C@@H]2CCC[C@@H](NC(=O)C3CCOCC3)CN(C)C(=O)C2)no1` are -4.54%, -6.99%, -1.27%, -7.41% and -7.2%.
